# Measurements reported in the supplement of paper PMC8728848.
# This is one part of the list.
# Key:
# Assay in all cases: glycan array binding signal (z-score within array); higher = stronger binding
# Details in all cases: glycan notation: IUPAC condensed, linker removed
# [1] = molecular target: Fuc(a1-2)Gal(b1-4)GlcNAc(b1-3)Gal(b1-4)GlcNAc(b1-2)Man(a1-3)[Fuc(a1-2)Gal(b1-4)GlcNAc(b1-3)Gal(b1-4)GlcNAc(b1-2)Man(a1-6)]Man(b1-4)GlcNAc(b1-4)GlcNAc
# How it was run: (§1)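 The Consortium for Functional Glycomics database supplied 3228 glycan arrays, of which those lacking an available protein sequence were dropped. The binding signal, a within-array Z-score, was averaged across arrays of the same protein sequence and across linkers. Negative scores can be read as non-binding.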
# [2] = molecular target: Fuc(a1-2)Gal(b1-4)GlcNAc(b1-3)Gal(b1-4)GlcNAc(b1-3)Gal(b1-4)GlcNAc
# How it was run: as §1
# [3] = molecular target: Fuc(a1-2)Gal(b1-4)GlcNAc(b1-3)GalNAc
# How it was run: as §1
# [4] = molecular target: Fuc(a1-2)Gal(b1-4)GlcNAc(b1-3)[Fuc(a1-2)Gal(b1-4)GlcNAc(b1-6)]GalNAc
# How it was run: as §1
# [5] = molecular target: Fuc(a1-2)Gal(b1-4)GlcNAc(b1-3)[Fuc(a1-3)[Gal(b1-4)]GlcNAc(b1-6)]Gal(b1-4)Glc
# How it was run: as §1
# [6] = molecular target: Fuc(a1-2)Gal(b1-4)GlcNAc(b1-6)GalNAc
# How it was run: as §1
# [7] = molecular target: Fuc(a1-2)Gal(b1-4)GlcNAc6S
# How it was run: as §1
# [8] = molecular target: Fuc(a1-2)Gal(b1-4)[Fuc(a1-3)]GlcNAc
# How it was run: as §1
# [9] = molecular target: Fuc(a1-2)Gal(b1-4)[Fuc(a1-3)]GlcNAc(b1-2)Man(a1-3)[Fuc(a1-2)Gal(b1-4)[Fuc(a1-3)]GlcNAc(b1-2)Man(a1-6)]Man(b1-4)GlcNAc(b1-4)[Fuc(a1-6)]GlcNAc
# How it was run: as §1
# [10] = molecular target: Fuc(a1-2)Gal(b1-4)[Fuc(a1-3)]GlcNAc(b1-2)[Fuc(a1-2)Gal(b1-4)[Fuc(a1-3)]GlcNAc(b1-4)]Man(a1-3)[Fuc(a1-2)Gal(b1-4)[Fuc(a1-3)]GlcNAc(b1-2)Man(a1-6)]Man(b1-4)GlcNAc(b1-4)GlcNAc
# How it was run: as §1
# [11] = molecular target: Fuc(a1-2)Gal(b1-4)[Fuc(a1-3)]GlcNAc(b1-3)Gal(b1-4)[Fuc(a1-3)]GlcNAc
# How it was run: as §1
# [12] = molecular target: Fuc(a1-2)Gal(b1-4)[Fuc(a1-3)]GlcNAc(b1-3)Gal(b1-4)[Fuc(a1-3)]GlcNAc(b1-3)Gal(b1-4)[Fuc(a1-3)]GlcNAc
# How it was run: as §1
# [13] = molecular target: Fuc(a1-2)Gal(b1-4)[Fuc(a1-3)]GlcNAc(b1-3)GalNAc
# How it was run: as §1
# [14] = molecular target: Fuc(a1-2)Gal(b1-4)[Fuc(a1-3)]GlcNAc(b1-3)[Neu5Ac(a2-6)Gal(b1-4)GlcNAc(b1-6)]Gal(b1-4)Glc
# How it was run: as §1
# [15] = molecular target: Fuc(a1-2)Gal3S(b1-4)GlcNAc
# How it was run: as §1
# [16] = molecular target: Fuc(a1-2)Gal6S(b1-3)GlcNAc
# How it was run: as §1
# [17] = molecular target: Fuc(a1-2)Gal6S(b1-3)GlcNAc6S
# How it was run: as §1
# Fuc(a1-2)Gal6S(b1-4)Glc = molecular target: Fuc(a1-2)Gal6S(b1-4)Glc
# How it was run: as §1
# [18] = molecular target: Fuc(a1-2)Gal6S(b1-4)Glc6S
# How it was run: as §1
# Fuc(a1-2)[Gal(a1-3)]Gal = molecular target: Fuc(a1-2)[Gal(a1-3)]Gal
# How it was run: as §1
# [19] = molecular target: Fuc(a1-2)[Gal(a1-3)]Gal(b1-3)GalNAc
# How it was run: as §1
# [20] = molecular target: Fuc(a1-2)[Gal(a1-3)]Gal(b1-3)GalNAc(b1-3)Gal(a1-4)Gal(b1-4)Glc
# How it was run: as §1
# [21] = molecular target: Fuc(a1-2)[Gal(a1-3)]Gal(b1-3)GlcNAc
# How it was run: as §1
# [22] = molecular target: Fuc(a1-2)[Gal(a1-3)]Gal(b1-3)GlcNAc(b1-2)Man(a1-3)[Fuc(a1-2)[Gal(a1-3)]Gal(b1-3)GlcNAc(b1-2)Man(a1-6)]Man(b1-4)GlcNAc(b1-4)GlcNAc
# How it was run: as §1
# [23] = molecular target: Fuc(a1-2)[Gal(a1-3)]Gal(b1-3)GlcNAc(b1-2)Man(a1-3)[Fuc(a1-2)[Gal(a1-3)]Gal(b1-3)GlcNAc(b1-2)Man(a1-6)]Man(b1-4)GlcNAc(b1-4)[Fuc(a1-6)]GlcNAc
# How it was run: as §1
# [24] = molecular target: Fuc(a1-2)[Gal(a1-3)]Gal(b1-3)GlcNAc(b1-3)GalNAc
# How it was run: as §1
# [25] = molecular target: Fuc(a1-2)[Gal(a1-3)]Gal(b1-3)GlcNAc(b1-6)GalNAc
# How it was run: as §1
# [26] = molecular target: Fuc(a1-2)[Gal(a1-3)]Gal(b1-4)Glc
# How it was run: as §1
# [27] = molecular target: Fuc(a1-2)[Gal(a1-3)]Gal(b1-4)GlcNAc
# How it was run: as §1
# [28] = molecular target: Fuc(a1-2)[Gal(a1-3)]Gal(b1-4)GlcNAc(b1-2)Man
# How it was run: as §1
binder,measurement,setting,value
"Apa (Mycobacterium tuberculosis), Rv1860 (protein) MHQVDPNLTRRKGRLAALAIAAMASASLVTVAVPATANADPEPAPPVPTTAASPPSTAAAPPAPATPVAPPPPAAANTPNAQPGDPNAAPPPADPNAPPPPVIAPNAPQPVRIDNPVGGFSFALPAGWVESDAAHFDYGSALLSKTTGDPPFPGQPPPVANDTRIVLGRLDQKLYASAEATDSKAAARLGSDMGEFYMPYPGTRINQETVSLDANGVSGSASYYEVKFSDPSKPNGQIWTGVIGSPAANAPDAGPPQRWFVVWLGTANNPVDKGAAKALAESIRPLVAPPPAPAPAPAEPAPAPAPAGEVAPTPTTPTPQRTLPA",glycan array binding signal (z-score),[1],-0.029
same,glycan array binding signal (z-score),[2],-0.516
same,glycan array binding signal (z-score),[3],-0.184
same,glycan array binding signal (z-score),[4],-0.126
same,glycan array binding signal (z-score),[5],-0.126
same,glycan array binding signal (z-score),[6],-0.114
same,glycan array binding signal (z-score),[7],-0.46
same,glycan array binding signal (z-score),[8],-0.382
same,glycan array binding signal (z-score),[9],0.23
same,glycan array binding signal (z-score),[10],0.27
same,glycan array binding signal (z-score),[11],-0.731
same,glycan array binding signal (z-score),[12],-0.053
same,glycan array binding signal (z-score),[13],0.513
same,glycan array binding signal (z-score),[14],-0.152
same,glycan array binding signal (z-score),[15],0.043
same,glycan array binding signal (z-score),[16],1.81
same,glycan array binding signal (z-score),[17],2.87
same,glycan array binding signal (z-score),Fuc(a1-2)Gal6S(b1-4)Glc,-0.257
same,glycan array binding signal (z-score),[18],1.9
same,glycan array binding signal (z-score),Fuc(a1-2)[Gal(a1-3)]Gal,-0.142
same,glycan array binding signal (z-score),[19],0.254
same,glycan array binding signal (z-score),[20],-0.198
same,glycan array binding signal (z-score),[21],-0.446
same,glycan array binding signal (z-score),[22],-0.163
same,glycan array binding signal (z-score),[23],0.338
same,glycan array binding signal (z-score),[24],-0.098
same,glycan array binding signal (z-score),[25],-0.428
same,glycan array binding signal (z-score),[26],0.178
same,glycan array binding signal (z-score),[27],-0.623
same,glycan array binding signal (z-score),[28],-0.105
